Measurements reported in paper PMC5389568 (Nucleic Acids Research, 2016).

Molecular target: the molecule itself
Assay: crystal structure

B1: MAX bHLH-leucine zipper domain ([…]) (domain or fragment)
chain: not shown
- binding result: binds
